Data published in the antibiotic and cytotoxicity screens of Wong et al. (2023).
The other results are listed elsewhere or left out.

Columns and labels:
HSkMC = human skeletal muscle cells; assay: cytotoxicity call (relative viability < 0.9); conditions: 10 µM
HepG2 = assay: cytotoxicity call (relative viability < 0.9); conditions: 10 µM
S. aureus RN4220 = assay: growth inhibition call (relative growth <= 0.2); conditions: 50 µM

Compound	cytotoxicity call (HSkMC)	cytotoxicity call (HepG2)	growth inhibition call (S. aureus RN4220)
COc1ccc2c3c([nH]c2c1)[C@H](CO)N(C[C@]13CN(C1)C(=O)Cc1cccnc1)S(=O)(=O)c1ccc(cc1)C	inactive	inactive	inactive
Cc1ccc(S(=O)(=O)N(C)C[C@@H]2Oc3ncc(C#CC(C)(C)O)cc3C(=O)N([C@H](C)CO)C[C@@H]2C)cc1	inactive	inactive	inactive
CO[C@@]1(C(=O)NN)COc2ccccc2O1	inactive	inactive	inactive
CCn1c2ccc(Cl)cc2c2cc(Cl)ccc21	inactive	inactive	inactive
Cc1ccc2nc(CN)cn2c1	inactive	inactive	inactive
C[C@H](CO)N1C[C@H](C)[C@@H](CN(C)Cc2cccc(C(=O)O)c2)Oc2cc(Br)ccc2S1(=O)=O	inactive	inactive	inactive
CS(=O)(=O)N1C[C@H]2CN(C(=O)c3cnccn3)C[C@@H]2C1	inactive	inactive	inactive
C[C@@H]1CN([C@H](C)CO)C(=O)c2c(c3ccccc3n2C)-c2ccccc2CO[C@@H]1CN(C)C(=O)[C@H](C)c1ccccc1	active	inactive	inactive
C[C@@H]1CCCCO[C@@H](CN(C)C(=O)Cc2ccccc2)[C@H](C)CN([C@H](C)CO)C(=O)c2cc(NC(=O)NC3CCCCC3)ccc2O1	inactive	active	inactive
Cc1noc(C)c1NC(=O)N(C)C[C@H]1Oc2c(NC(=O)Nc3cccc4ccccc34)cccc2C(=O)N([C@@H](C)CO)C[C@@H]1C	inactive	inactive	inactive
C[C@@H]1CCCCO[C@H](CN(C)C(=O)C2CCCCC2)[C@H](C)CN([C@@H](C)CO)C(=O)c2cc(NC(=O)Nc3ccccc3)ccc2O1	inactive	inactive	inactive
C[C@@H]1CN([C@@H](C)CO)C(=O)c2cc(NC(=O)Nc3cccc4ccccc34)ccc2O[C@@H](C)CCCCO[C@H]1CN(C)C(=O)c1ccccc1	inactive	inactive	inactive
COc1ccc(CN(C)C[C@H]2OCCCC[C@@H](C)Oc3ccc(NC(=O)Nc4ccccc4)cc3C(=O)N([C@H](C)CO)C[C@H]2C)cc1	active	active	inactive
CCNC(=O)C[C@@H]1CC[C@H]2[C@@H](COc3ccc(NS(=O)(=O)c4ccccc4C)cc3C(=O)N2C)O1	inactive	inactive	inactive
CC(C)NC(=O)N(C)C[C@@H]1Oc2ccc(NS(=O)(=O)c3ccccc3)cc2C(=O)N([C@@H](C)CO)C[C@H]1C	inactive	inactive	inactive
Cc1cc(C)nc(N2CC(=O)NC2=N)n1	inactive	inactive	inactive
C[C@@H]1CN([C@H](C)CO)C(=O)c2cccc(NC(=O)C3CC3)c2O[C@@H]1CN(C)Cc1ccc(C(=O)O)cc1	inactive	inactive	inactive
C[C@@H]1CN([C@H](C)CO)S(=O)(=O)c2ccc(-c3ccncc3)cc2O[C@@H]1CN(C)Cc1ccc(Oc2ccccc2)cc1	inactive	inactive	inactive
C[C@@H]1CCCCO[C@@H](CN(C)C(=O)Nc2cccc3ccccc23)[C@H](C)CN([C@H](C)CO)C(=O)c2cc(NC(=O)c3ccncc3)ccc2O1	inactive	inactive	inactive
C[C@@H]1CN([C@H](C)CO)C(=O)Cc2cc(NS(=O)(=O)c3ccc(Cl)cc3)ccc2O[C@@H]1CN(C)C(=O)Nc1cccc2ccccc12	inactive	inactive	inactive
COc1ccc(S(=O)(=O)Nc2cccc3c2O[C@H](CN(C)C(=O)Nc2cccc4ccccc24)[C@@H](C)CN([C@@H](C)CO)C3=O)cc1	inactive	inactive	inactive
COc1ccccc1NC(=O)N(C)C[C@H]1Oc2ncc(C#CC(C)C)cc2C(=O)N([C@H](C)CO)C[C@@H]1C	inactive	inactive	inactive
